Results: patent publication US12097241B2, “Methods of treating kidney failure, and/or improving or stablizing renal function using modified relaxin polypeptides” (BRISTOL-MYERS SQUIBB COMPANY, priority 2017, dated 2024)
Not every detail of the peptide structures is certain; ends, links or a residue may be inferred.

Test: Rat renal blood flow studies
Format: in vivo, Sprague Dawley rats
Details: anesthetized male Sprague Dawley rats, 1 mg/kg intravenously, renal blood flow recorded for 45 min

Structure (SMILES)	% change in RBF over baseline
CC[C@H](C)[C@@H]1NC(=O)[C@H](C)NC(=O)[C@H]([C@@H](C)CC)NC(=O)[C@H](CCC(N)=O)NC(=O)[C@H](C)NC(=O)[C@H](CCCNC(=N)N)NC(=O)[C@H](C(C)C)NC(=O)[C@H](CC(C)C)NC(=O)[C@H](CCC(=O)O)NC(=O)[C@H](CCCNC(=N)N)NC(=O)CNC(=O)[C@@H](NC(=O)[C@H](CC(C)C)NC(=O)[C@H](CCCCN)NC(=O)[C@@H](NC(=O)[C@@H](NC(=O)[C@H](CCC(=O)O)NC(=O)[C@H](CCC(=O)O)NC(=O)[C@H](CCSC)NC(=O)[C@H](Cc2c[nH]c3ccccc23)NC(=O)[C@H](CO)NC(=O)[C@H](C)N)C(C)C)[C@@H](C)CC)CSSC[C@@H]2NC(=O)[C@@H](NC(=O)[C@H](CCCCN)NC(=O)[C@H](CC(N)=O)NC(=O)[C@H](C)NC(=O)[C@H](CC(C)C)NC(=O)[C@H](C)NC(=O)[C@H](CO)NC(=O)[C@H](Cc3ccc(O)cc3)NC(=O)[C@H](CC(C)C)NC(=O)[C@@H](N)Cc3ccc(/C(C)=N/OCCNC(=O)CCOCCOCCOCCOCCOCCOCCOCCOCCOCCOCCOCCOCCOCCOCCOCCOCCOCCOCCOCCOCCOCCOCCOCCOCCOCCOCCOCCOCCOCCOCCOCCOCCOCCOCCOCCOCCNC(=O)CC[C@H](NC(=O)CCCCCCCCCCCCC(=O)O)C(=O)O)cc3)CSSC[C@H](NC(=O)CNC(=O)[C@H](C(C)C)NC(=O)[C@H](Cc3c[nH]cn3)NC2=O)C(=O)N[C@@H]([C@@H](C)O)C(=O)N[C@@H](CCCCN)C(=O)N[C@@H](CCCNC(=N)N)C(=O)N[C@@H](CO)C(=O)N[C@@H](CC(C)C)C(=O)N[C@@H](C)C(=O)N[C@@H](CCCNC(=N)N)C(=O)N[C@@H](Cc2ccccc2)C(=O)N[C@H](C(=O)O)CSSC[C@@H](C(=O)NCC(=O)N[C@@H](CCSC)C(=O)N[C@@H](CO)C(=O)N[C@H](C(=O)N[C@@H](Cc2c[nH]c3ccccc23)C(=O)N[C@@H](CO)C(=O)O)[C@@H](C)O)NC1=O [AQ1-PEG36-Glu-C13-COOH]	+24%
CC[C@H](C)[C@@H]1NC(=O)[C@H](C)NC(=O)[C@H]([C@@H](C)CC)NC(=O)[C@H](CCC(N)=O)NC(=O)[C@H](C)NC(=O)[C@H](CCCNC(=N)N)NC(=O)[C@H](C(C)C)NC(=O)[C@H](CC(C)C)NC(=O)[C@H](CCC(=O)O)NC(=O)[C@H](CCCNC(=N)N)NC(=O)CNC(=O)[C@@H](NC(=O)[C@H](CC(C)C)NC(=O)[C@H](CCCCN)NC(=O)[C@@H](NC(=O)[C@@H](NC(=O)[C@H](CCC(=O)O)NC(=O)[C@H](CCC(=O)O)NC(=O)[C@H](CCSC)NC(=O)[C@H](Cc2c[nH]c3ccccc23)NC(=O)[C@H](CO)NC(=O)[C@H](C)N)C(C)C)[C@@H](C)CC)CSSC[C@@H]2NC(=O)[C@@H](NC(=O)[C@H](CCCCN)NC(=O)[C@H](CC(N)=O)NC(=O)[C@H](C)NC(=O)[C@H](CC(C)C)NC(=O)[C@H](C)NC(=O)[C@H](CO)NC(=O)[C@H](Cc3ccc(O)cc3)NC(=O)[C@H](CC(C)C)NC(=O)[C@@H](N)Cc3ccc(C(C)=NOCCNC(=O)[C@H](CCCNC(=N)N)NC(=O)CNC(=O)CNC(=O)[C@H](CCC(=O)O)NC(=O)[C@H](CCC(=O)O)NC(=O)[C@H](CCCCN)NC(=O)[C@H](CCCCN)NC(=O)[C@H](CCCCN)NC(=O)[C@H](CCC(=O)O)NC(=O)[C@H](CCCCN)NC(=O)[C@H](CCC(=O)O)NC(=O)[C@H](CCCCN)NC(=O)CC[C@H](NC(=O)CCCCCCCCCCCCC(=O)O)C(=O)O)cc3)CSSC[C@H](NC(=O)CNC(=O)[C@H](C(C)C)NC(=O)[C@H](Cc3c[nH]cn3)NC2=O)C(=O)N[C@@H]([C@@H](C)O)C(=O)N[C@@H](CCCCN)C(=O)N[C@@H](CCCNC(=N)N)C(=O)N[C@@H](CO)C(=O)N[C@@H](CC(C)C)C(=O)N[C@@H](C)C(=O)N[C@@H](CCCNC(=N)N)C(=O)N[C@@H](Cc2ccccc2)C(=O)N[C@H](C(=O)O)CSSC[C@@H](C(=O)NCC(=O)N[C@@H](CCSC)C(=O)N[C@@H](CO)C(=O)N[C@H](C(=O)N[C@@H](Cc2c[nH]c3ccccc23)C(=O)N[C@@H](CO)C(=O)O)[C@@H](C)O)NC1=O [AQ1-RGGEEKKKEKEK-Glu^γ-C13-COOH]	+19%
